# According to the antibiotic and cytotoxicity screens of Wong et al. (2023):
# This is one part of the list.
# Columns and labels:
# [1] = test system: HSkMC (human skeletal muscle cells); assay: cytotoxicity call (relative viability < 0.9); conditions: 10 µM
# [2] = test system: HepG2; assay: cytotoxicity call (relative viability < 0.9); conditions: 10 µM
# [3] = test system: S. aureus RN4220; assay: growth inhibition call (relative growth <= 0.2); conditions: 50 µM
Structure (SMILES),cytotoxicity call [1],cytotoxicity call [2],growth inhibition call [3]
C[C@H]1CN([C@@H](C)CO)C(=O)Cc2cc(NC(=O)Cn3cnnn3)ccc2O[C@H]1CN(C)S(=O)(=O)c1ccccc1,inactive,inactive,inactive
COc1ccc2c3c(n(c2c1)C)[C@H](CO)N(C[C@]13CCN(CC1)C(=O)c1ccccn1)C(=O)c1ccccn1,inactive,inactive,inactive
O=S(=O)(N1CCOCC1)n1nnc2ccccc21,inactive,inactive,inactive
C[C@H]1CN([C@@H](C)CO)C(=O)c2cccc(NS(=O)(=O)c3ccc(Cl)cc3)c2O[C@@H]1CN(C)C(=O)Nc1ccc(C(F)(F)F)cc1,inactive,inactive,inactive
COc1ccc(NC(=O)Nc2ccc3c(c2)C(=O)N([C@@H](C)CO)C[C@H](C)[C@@H](CN(C)S(=O)(=O)c2c(C)noc2C)OCCCC[C@@H](C)O3)cc1,inactive,inactive,inactive
COc1ccc(CN(C)C[C@H]2OCCCC[C@H](C)Oc3ccc(NS(=O)(=O)c4cccs4)cc3C(=O)N([C@@H](C)CO)C[C@@H]2C)cc1,inactive,inactive,inactive
O=C(C[C@@H]1C[C@H]2c3cc(NC(=O)NC4CCCC4)ccc3O[C@H]2[C@H](CO)O1)NCc1ccc(-c2ccccc2)cc1,active,active,inactive
C[C@H](CO)N1C[C@H](C)[C@H](CN(C)C(=O)CN2CCOCC2)Oc2ncc(C#CCN(C)C)cc2C1=O,inactive,inactive,inactive
C(=N\n1cnnc1)/c1ccco1,inactive,inactive,inactive
CN1C(=O)c2cc(NC(=O)c3ccno3)ccc2OC[C@H]2O[C@@H](CC(=O)NC3Cc4ccccc4C3)CC[C@@H]21,inactive,inactive,inactive
C[C@H](CO)N1C[C@H](C)[C@@H](CN(C)S(=O)(=O)c2cn(C)cn2)OCCCC[C@H](C)Oc2ccc(N(C)C)cc2C1=O,inactive,inactive,inactive
Cc1noc(C)c1S(=O)(=O)Nc1cccc2c1O[C@@H](CN(C)Cc1ccc3c(c1)OCO3)[C@@H](C)CN([C@@H](C)CO)C2=O,inactive,inactive,inactive
